# Results as given in the supplement of paper PMC8728848.
# The other results are listed elsewhere or left out.
# B1: Pwp5 ND (Candida glabrata) (protein)
# chain: MGSSHHHHHHSSGLVPRGSHMASANPVPLTNVCYFPEEYPRQAGFRAITAGLASTILQGSVDELLNYSGLSSLTTQQTTTTTPNFQLPTLPLPTNVYGLTVVPLYLLVQLQGYFVPPVSGQYTFSLENTNDAAIIFFGNPSAFPCGDLSAWPQASADDITVTDGTFPSRTLFLKAGVAYPMRISYYNSLGSGNLAVSFTDPGGTKRTNWNGYIWRYNSCSTCTYT
# Tests used:
# Assay in all cases: glycan array binding signal (z-score within array); higher = stronger binding
# Conditions in all cases: glycan notation: IUPAC condensed, linker removed
# [1] = target: Gal(b1-4)GlcNAc(b1-3)Gal(b1-4)GlcNAc(b1-6)[Gal(b1-3)]GalNAc
# In short: (§1)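 Glycan array data were curated from 3228 arrays in the Consortium for Functional Glycomics database and kept only where the protein sequence was available. Glycan names were converted to IUPAC-condensed notation, and columns mapping to the same glycan were averaged. The binding signal is a within-array Z-score, averaged across arrays of the same protein sequence at different concentrations or buffers and across linkers. Negative Z-scores can be read as non-binding.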
# [2] = target: Gal(b1-4)GlcNAc(b1-3)Gal(b1-4)[Fuc(a1-3)]GlcNAc(b1-3)Gal(b1-4)[Fuc(a1-3)]GlcNAc
# In short: as §1
# [3] = target: Gal(b1-4)GlcNAc(b1-3)GalNAc
# In short: as §1
# [4] = target: Gal(b1-4)GlcNAc(b1-3)[Fuc(a1-3)GlcNAc(b1-6)]Gal(b1-4)Glc
# In short: as §1
# [5] = target: Gal(b1-4)GlcNAc(b1-3)[Gal(b1-4)GlcNAc(b1-6)]Gal(b1-4)GlcNAc
# In short: as §1
# [6] = target: Gal(b1-4)GlcNAc(b1-3)[GlcNAc(b1-6)]Gal(b1-4)GlcNAc
# In short: as §1
# [7] = target: Gal(b1-4)GlcNAc(b1-6)Gal(b1-4)GlcNAc
# In short: as §1
# [8] = target: Gal(b1-4)GlcNAc(b1-6)GalNAc
# In short: as §1
# [9] = target: Gal(b1-4)GlcNAc(b1-6)[Gal(b1-3)]GalNAc
# In short: as §1
# [10] = target: Gal(b1-4)GlcNAc(b1-6)[Gal(b1-4)GlcNAc(b1-3)]GalNAc
# In short: as §1
# Gal(b1-4)GlcNAc6P = target: Gal(b1-4)GlcNAc6P
# In short: as §1
# Gal(b1-6)Gal = target: Gal(b1-6)Gal
# In short: as §1
# Gal3S(b1-3)GalNAc = target: Gal3S(b1-3)GalNAc
# In short: as §1
# Gal3S(b1-3)GlcNAc = target: Gal3S(b1-3)GlcNAc
# In short: as §1
# [11] = target: Gal3S(b1-3)[Fuc(a1-4)]GlcNAc
# In short: as §1
# Gal3S(b1-4)Glc = target: Gal3S(b1-4)Glc
# In short: as §1
# Gal3S(b1-4)Glc6S = target: Gal3S(b1-4)Glc6S
# In short: as §1
# Gal3S(b1-4)GlcNAc = target: Gal3S(b1-4)GlcNAc
# In short: as §1
# [12] = target: Gal3S(b1-4)[Fuc(a1-3)]Glc6S
# In short: as §1
# [13] = target: Gal3S(b1-4)[Fuc(a1-3)]GlcNAc
# In short: as §1
# [14] = target: Gal3S(b1-4)[Fuc(a1-3)]GlcNAc6S
# In short: as §1
# Gal3S4S(b1-4)GlcNAc = target: Gal3S4S(b1-4)GlcNAc
# In short: as §1
# Gal3S6S(b1-4)GlcNAc = target: Gal3S6S(b1-4)GlcNAc
# In short: as §1
# Gal3S6S(b1-4)GlcNAc6S = target: Gal3S6S(b1-4)GlcNAc6S
# In short: as §1
# Gal4S(b1-4)GlcNAc = target: Gal4S(b1-4)GlcNAc
# In short: as §1
# Gal4S6S(b1-4)GlcNAc = target: Gal4S6S(b1-4)GlcNAc
# In short: as §1
# Gal6P(b1-4)GlcNAc = target: Gal6P(b1-4)GlcNAc
# In short: as §1
# Gal6S(b1-3)GlcNAc = target: Gal6S(b1-3)GlcNAc
# In short: as §1
# Gal6S(b1-3)GlcNAc6S = target: Gal6S(b1-3)GlcNAc6S
# In short: as §1
# Gal6S(b1-4)Glc = target: Gal6S(b1-4)Glc
# In short: as §1
# Gal6S(b1-4)Glc6S = target: Gal6S(b1-4)Glc6S
# In short: as §1
# Gal6S(b1-4)GlcNAc = target: Gal6S(b1-4)GlcNAc
# In short: as §1
# Gal6S(b1-4)GlcNAc6S = target: Gal6S(b1-4)GlcNAc6S
# In short: as §1
# GalNAc(a1-3)Gal = target: GalNAc(a1-3)Gal
# In short: as §1
# GalNAc(a1-3)GalNAc = target: GalNAc(a1-3)GalNAc
# In short: as §1
# [15] = target: GalNAc(a1-3)GalNAc(b1-3)Gal(a1-4)Gal(b1-4)Glc
# In short: as §1
# [16] = target: GalNAc(a1-3)GalNAc(b1-3)Gal(a1-4)Gal(b1-4)GlcNAc
# In short: as §1
# GalNAc(b1-3)Gal = target: GalNAc(b1-3)Gal
# In short: as §1
# [17] = target: GalNAc(b1-3)Gal(a1-4)Gal(b1-4)GlcNAc
# In short: as §1
# [18] = target: GalNAc(b1-3)Gal(a1-4)Gal(b1-4)GlcNAc(b1-3)Gal(b1-4)Glc
# In short: as §1
# [19] = target: GalNAc(b1-3)Gal(a1-6)Gal(b1-4)Glc
# In short: as §1
# GalNAc(b1-3)GalNAc = target: GalNAc(b1-3)GalNAc
# In short: as §1
# GalNAc(b1-3)GlcNAc = target: GalNAc(b1-3)GlcNAc
# In short: as §1
# GalNAc(b1-4)Gal(b1-4)Glc = target: GalNAc(b1-4)Gal(b1-4)Glc
# In short: as §1
# GalNAc(b1-4)GlcNAc = target: GalNAc(b1-4)GlcNAc
# In short: as §1
binder,measurement,setting,value
B1,glycan array binding signal (z-score),[1],-0.326
same,glycan array binding signal (z-score),[2],-0.559
same,glycan array binding signal (z-score),[3],-0.549
same,glycan array binding signal (z-score),[4],-0.468
same,glycan array binding signal (z-score),[5],1.28
same,glycan array binding signal (z-score),[6],0.024
same,glycan array binding signal (z-score),[7],-0.421
same,glycan array binding signal (z-score),[8],0.045
same,glycan array binding signal (z-score),[9],1.12
same,glycan array binding signal (z-score),[10],-0.249
same,glycan array binding signal (z-score),Gal(b1-4)GlcNAc6P,0.563
same,glycan array binding signal (z-score),Gal(b1-6)Gal,-0.403
same,glycan array binding signal (z-score),Gal3S(b1-3)GalNAc,-0.627
same,glycan array binding signal (z-score),Gal3S(b1-3)GlcNAc,-0.462
same,glycan array binding signal (z-score),[11],-0.083
same,glycan array binding signal (z-score),Gal3S(b1-4)Glc,-0.405
same,glycan array binding signal (z-score),Gal3S(b1-4)Glc6S,-0.422
same,glycan array binding signal (z-score),Gal3S(b1-4)GlcNAc,-0.629
same,glycan array binding signal (z-score),[12],0.183
same,glycan array binding signal (z-score),[13],-0.532
same,glycan array binding signal (z-score),[14],-0.523
same,glycan array binding signal (z-score),Gal3S4S(b1-4)GlcNAc,-0.481
same,glycan array binding signal (z-score),Gal3S6S(b1-4)GlcNAc,-0.167
same,glycan array binding signal (z-score),Gal3S6S(b1-4)GlcNAc6S,-0.375
same,glycan array binding signal (z-score),Gal4S(b1-4)GlcNAc,-0.498
same,glycan array binding signal (z-score),Gal4S6S(b1-4)GlcNAc,-0.517
same,glycan array binding signal (z-score),Gal6P(b1-4)GlcNAc,-0.162
same,glycan array binding signal (z-score),Gal6S(b1-3)GlcNAc,-0.366
same,glycan array binding signal (z-score),Gal6S(b1-3)GlcNAc6S,0.348
same,glycan array binding signal (z-score),Gal6S(b1-4)Glc,-0.509
same,glycan array binding signal (z-score),Gal6S(b1-4)Glc6S,-0.508
same,glycan array binding signal (z-score),Gal6S(b1-4)GlcNAc,-0.536
same,glycan array binding signal (z-score),Gal6S(b1-4)GlcNAc6S,-0.261
same,glycan array binding signal (z-score),GalNAc(a1-3)Gal,-0.724
same,glycan array binding signal (z-score),GalNAc(a1-3)GalNAc,-0.301
same,glycan array binding signal (z-score),[15],-0.548
same,glycan array binding signal (z-score),[16],-0.5
same,glycan array binding signal (z-score),GalNAc(b1-3)Gal,-0.314
same,glycan array binding signal (z-score),[17],-0.528
same,glycan array binding signal (z-score),[18],-0.591
same,glycan array binding signal (z-score),[19],-0.662
same,glycan array binding signal (z-score),GalNAc(b1-3)GalNAc,-0.474
same,glycan array binding signal (z-score),GalNAc(b1-3)GlcNAc,1.6
same,glycan array binding signal (z-score),GalNAc(b1-4)Gal(b1-4)Glc,0.779
same,glycan array binding signal (z-score),GalNAc(b1-4)GlcNAc,1.64
